PMC11231238, “SPRING licenses S1P-mediated cleavage of SREBP2 by displacing an inhibitory pro-domain” (Nature Communications, 2024)
Changes are numbered by the printed parent chain. Names and notes keep the numbering of the source. No constants are given. Whether binding was seen depends on the method and setting. For some assays here: In cells and extracts the contact can be indirect. Some results given as binding are weak or reduced against the parent protein; the word gives no strength. Tags and fused reporters may be left off the sequences shown. Blank lines part the entries; values can stand above or below the binder they belong to.

Assays:
[1] = target: T1, SPRING_(ecto)-His10 (human) (UniProt Q9H741); experiment: SEC-MALS; co-purified S1P_(ecto)-SPRING_(ecto) complex, 400 ug at 2 mg/mL, 0.5 mL/min, gel filtration buffer; both purified
T1 sequence: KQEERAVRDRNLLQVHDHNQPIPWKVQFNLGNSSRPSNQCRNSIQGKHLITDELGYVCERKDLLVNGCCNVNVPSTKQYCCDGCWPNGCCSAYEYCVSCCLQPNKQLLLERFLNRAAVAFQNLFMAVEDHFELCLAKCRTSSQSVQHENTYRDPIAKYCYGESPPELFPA

[2] = target: T1, SPRING_(ecto)-His10 (human); experiment: cryo-EM structure; co-purified S1P_(ecto)-3xFLAG/SPRING_(ecto)-His10 complex, 0.6-0.7 mg/mL on grids; Titan Krios 300 kV; both purified
[3] = target: T1, SPRING_(ecto)-His10 (human); experiment: pull-down + SEC; NiNTA affinity chromatography through the His10 tag from HEK 293S GnTI- supernatants, then Superdex 200 gel filtration; 150 mM NaCl, 50 mM HEPES-NaOH pH 7.5; wash with 50 mM imidazole; Coomassie-stained SDS-PAGE
[4] = target: T1, SPRING_(ecto)-His10 (human); experiment: mass photometry; co-purified S1P_(ecto)-SPRING_(ecto) complex, 100 nM stock in PBS, 1.8 uL added to 16.2 uL PBS; Refeyn TwoMP; both purified
SPRING_(ecto)-HA (human) = target: T2, SPRING_(ecto)-HA (human) (UniProt Q9H741); experiment: co-IP; HEK 293T supernatants of co-transfected cells; anti-HA agarose holds SPRING_(ecto)-HA, 1 h at 4 °C; washes in 150 mM NaCl, 50 mM HEPES-NaOH pH 7.5; elution with 200 mM glycine pH 3.5; immunoblot anti-HA and anti-His
T2 sequence: T1 sequence

[5] = target: T3, FLAG-S1P_(ecto)-His10, matured C-form (human, UniProt Q14703 187-998); experiment: pull-down; HEK 293T supernatants of co-transfected cells with 50 mM imidazole; NiNTA resin holds the His10 tag of S1P_(ecto), 1-2 h at 4 °C; washes in 150 mM NaCl, 50 mM HEPES-NaOH pH 7.5, 50 mM imidazole; elution with 300 mM imidazole; immunoblot anti-HA, anti-His, anti-FLAG
T3 construct: human S1P (MBTPS1); expressed as IgK leader-FLAG-residues 23-998-His10; after autoproteolysis the His10-bearing C-form; The N-terminal FLAG tag leaves with the A-domain; also called WT S1P_(ecto); C-form of S1P_(ecto); source: HEK 293S GnTI- (BacMam baculovirus), secreted, purified (NiNTA, gel filtration); HEK 293T, transfected, secreted, in supernatant; not shown: His10, C-terminal, kept
T3 sequence (looked up): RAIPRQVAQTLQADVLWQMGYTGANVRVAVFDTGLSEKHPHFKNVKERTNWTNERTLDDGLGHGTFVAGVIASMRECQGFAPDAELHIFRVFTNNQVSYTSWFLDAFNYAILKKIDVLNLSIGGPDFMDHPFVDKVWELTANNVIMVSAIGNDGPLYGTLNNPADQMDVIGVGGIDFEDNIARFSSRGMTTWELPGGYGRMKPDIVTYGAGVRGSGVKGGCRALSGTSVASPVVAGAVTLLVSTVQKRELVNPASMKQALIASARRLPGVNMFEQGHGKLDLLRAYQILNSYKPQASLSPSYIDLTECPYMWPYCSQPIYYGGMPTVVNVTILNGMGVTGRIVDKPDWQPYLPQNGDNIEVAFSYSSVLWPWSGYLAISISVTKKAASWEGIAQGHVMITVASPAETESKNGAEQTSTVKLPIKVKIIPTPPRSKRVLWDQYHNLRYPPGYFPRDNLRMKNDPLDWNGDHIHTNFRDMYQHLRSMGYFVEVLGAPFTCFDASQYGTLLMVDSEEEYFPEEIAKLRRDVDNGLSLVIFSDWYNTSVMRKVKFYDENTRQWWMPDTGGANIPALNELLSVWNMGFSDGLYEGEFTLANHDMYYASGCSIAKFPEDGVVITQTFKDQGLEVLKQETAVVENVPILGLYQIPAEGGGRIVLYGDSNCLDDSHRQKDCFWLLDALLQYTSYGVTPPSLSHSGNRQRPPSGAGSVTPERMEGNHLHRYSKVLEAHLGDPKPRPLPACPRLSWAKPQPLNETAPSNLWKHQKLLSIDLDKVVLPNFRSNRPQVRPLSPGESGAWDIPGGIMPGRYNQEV

- binding [1]: binds
- binding [2]: binds
- binding [3]: binds
- binding [4]: binds
B1: S1P_(ecto)-3xFLAG, matured C-form (enzyme, UniProt Q14703 187-998)
chain: T3 sequence (looked up)
modifications: N-linked glycan at N515

- binding (SPRING_(ecto)-HA (human)): binds
B2: FLAG-S1P_(ecto)-His10, matured C-form (enzyme, UniProt Q14703 187-998)
chain: T3 sequence (looked up)

- binding (SPRING_(ecto)-HA (human)): binds
B3: B-form S1P_(ecto) (FLAG-S1P_(ecto)-His10 with the C' and C sites mutated) (enzyme, UniProt Q14703 138-998)
chain: YAESDPTVPCNETRWSQKWQSSRPLAAASLSLGSGFWHATGRHSSAALLRAIPRQVAQTLQADVLWQMGYTGANVRVAVFDTGLSEKHPHFKNVKERTNWTNERTLDDGLGHGTFVAGVIASMRECQGFAPDAELHIFRVFTNNQVSYTSWFLDAFNYAILKKIDVLNLSIGGPDFMDHPFVDKVWELTANNVIMVSAIGNDGPLYGTLNNPADQMDVIGVGGIDFEDNIARFSSRGMTTWELPGGYGRMKPDIVTYGAGVRGSGVKGGCRALSGTSVASPVVAGAVTLLVSTVQKRELVNPASMKQALIASARRLPGVNMFEQGHGKLDLLRAYQILNSYKPQASLSPSYIDLTECPYMWPYCSQPIYYGGMPTVVNVTILNGMGVTGRIVDKPDWQPYLPQNGDNIEVAFSYSSVLWPWSGYLAISISVTKKAASWEGIAQGHVMITVASPAETESKNGAEQTSTVKLPIKVKIIPTPPRSKRVLWDQYHNLRYPPGYFPRDNLRMKNDPLDWNGDHIHTNFRDMYQHLRSMGYFVEVLGAPFTCFDASQYGTLLMVDSEEEYFPEEIAKLRRDVDNGLSLVIFSDWYNTSVMRKVKFYDENTRQWWMPDTGGANIPALNELLSVWNMGFSDGLYEGEFTLANHDMYYASGCSIAKFPEDGVVITQTFKDQGLEVLKQETAVVENVPILGLYQIPAEGGGRIVLYGDSNCLDDSHRQKDCFWLLDALLQYTSYGVTPPSLSHSGNRQRPPSGAGSVTPERMEGNHLHRYSKVLEAHLGDPKPRPLPACPRLSWAKPQPLNETAPSNLWKHQKLLSIDLDKVVLPNFRSNRPQVRPLSPGESGAWDIPGGIMPGRYNQEV

- binding (SPRING_(ecto)-HA (human)): no binding
B4: FLAG-S1P_(ecto)^S414A-His10 (A-form) (enzyme, UniProt Q14703 23-998)
chain: DRLEKKSFEKAPCPGCSHLTLKVEFSSTVVEYEYIVAFNGYFTAKARNSFISSALKSSEVDNWRIIPRNNPSSDYPSDFEVIQIKEKQKAGLLTLEDHPNIKRVTPQRKVFRSLKYAESDPTVPCNETRWSQKWQSSRPLRRASLSLGSGFWHATGRHSSRRLLRAIPRQVAQTLQADVLWQMGYTGANVRVAVFDTGLSEKHPHFKNVKERTNWTNERTLDDGLGHGTFVAGVIASMRECQGFAPDAELHIFRVFTNNQVSYTSWFLDAFNYAILKKIDVLNLSIGGPDFMDHPFVDKVWELTANNVIMVSAIGNDGPLYGTLNNPADQMDVIGVGGIDFEDNIARFSSRGMTTWELPGGYGRMKPDIVTYGAGVRGSGVKGGCRALSGTAVASPVVAGAVTLLVSTVQKRELVNPASMKQALIASARRLPGVNMFEQGHGKLDLLRAYQILNSYKPQASLSPSYIDLTECPYMWPYCSQPIYYGGMPTVVNVTILNGMGVTGRIVDKPDWQPYLPQNGDNIEVAFSYSSVLWPWSGYLAISISVTKKAASWEGIAQGHVMITVASPAETESKNGAEQTSTVKLPIKVKIIPTPPRSKRVLWDQYHNLRYPPGYFPRDNLRMKNDPLDWNGDHIHTNFRDMYQHLRSMGYFVEVLGAPFTCFDASQYGTLLMVDSEEEYFPEEIAKLRRDVDNGLSLVIFSDWYNTSVMRKVKFYDENTRQWWMPDTGGANIPALNELLSVWNMGFSDGLYEGEFTLANHDMYYASGCSIAKFPEDGVVITQTFKDQGLEVLKQETAVVENVPILGLYQIPAEGGGRIVLYGDSNCLDDSHRQKDCFWLLDALLQYTSYGVTPPSLSHSGNRQRPPSGAGSVTPERMEGNHLHRYSKVLEAHLGDPKPRPLPACPRLSWAKPQPLNETAPSNLWKHQKLLSIDLDKVVLPNFRSNRPQVRPLSPGESGAWDIPGGIMPGRYNQEV

- binding [5]: no binding
B5: SPRING_(ecto)^R174A (HA-tagged) (domain or fragment, UniProt Q9H741 36-205)
chain: T1 sequence with R139A
